# In paper PMC6919601, “Identification of Plasmodium dipeptidyl aminopeptidase allosteric inhibitors by high throughput screening” (PLoS ONE, 2019):
# The campaign covered roughly 110,000 compounds. About 230 (0.21%) showed an effect of 50% or more. Some of the results follow.
# Target: DPAP1 (Plasmodium falciparum, UniProt Q8IIJ9)
# Assay: primary screen, percent inhibition; read by cleavage of a fluorogenic dipeptide substrate; higher = more effect of the substance
# Design: species or system P. falciparum D10 trophozoite lysates; single well
# 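Further: 30 min substrate incubation versus DMSO and 10 µM JCP410 controls.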
# DPAP1, sequence (Q8IIJ9 whole entry, looked up): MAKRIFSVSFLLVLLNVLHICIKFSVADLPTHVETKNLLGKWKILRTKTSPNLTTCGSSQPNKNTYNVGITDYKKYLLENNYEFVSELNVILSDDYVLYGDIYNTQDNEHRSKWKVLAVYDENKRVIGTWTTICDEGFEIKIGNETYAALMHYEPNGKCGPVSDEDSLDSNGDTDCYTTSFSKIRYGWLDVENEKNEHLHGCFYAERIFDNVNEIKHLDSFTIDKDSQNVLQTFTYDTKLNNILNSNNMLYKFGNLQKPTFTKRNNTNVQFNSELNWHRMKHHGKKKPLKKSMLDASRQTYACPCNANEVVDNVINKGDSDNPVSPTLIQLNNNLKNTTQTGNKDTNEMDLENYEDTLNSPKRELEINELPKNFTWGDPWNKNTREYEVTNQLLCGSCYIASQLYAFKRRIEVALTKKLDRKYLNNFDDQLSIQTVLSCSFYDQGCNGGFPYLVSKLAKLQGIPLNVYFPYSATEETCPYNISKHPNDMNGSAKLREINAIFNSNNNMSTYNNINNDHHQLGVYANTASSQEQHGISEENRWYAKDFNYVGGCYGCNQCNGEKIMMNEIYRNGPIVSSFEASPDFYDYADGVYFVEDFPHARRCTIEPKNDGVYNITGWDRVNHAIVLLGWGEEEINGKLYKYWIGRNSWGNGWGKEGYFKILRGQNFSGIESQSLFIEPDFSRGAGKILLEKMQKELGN
row,SMILES,% Inhibition @ 10 uM [%]
1,Cc1ccc(C)c(OCC(=O)Nc2ccc(S(=O)(=O)Nc3nccs3)cc2)c1,5.69
2,NC(=O)C1CCN(Cc2ccc(F)cc2)CC1,4.36
3,O=C(O)c1cccc(N2C(=O)C3C(C2=O)C2C=CC3C23CC3)c1 (centres unmarked),3.53
4,COc1cccc(CNC(=O)Cc2c(C)c3cc4c(C)coc4c(C)c3oc2=O)c1,0.895
5,CCOC(=O)c1ccc(Oc2nc(N3CCCCC3)nc(N3CCCCC3)n2)cc1,0.401
6,CCCOc1ccc(C2CC(=O)N3C(=C2C#N)SCC3(O)c2ccc(Cl)cc2)cc1OC (centres unmarked),-0.0235
7,COc1ccc(/C=C2/C(=N)N3C(=NC2=O)SN=C3S(C)(=O)=O)cc1OC,-1.58
8,COc1ccc2c(c1)N(C)C(=O)C2(c1ccccc1)c1ccccc1,8.19
9,CC(NC(=O)c1cnn2c(C(F)(F)F)cc(-c3cccs3)nc12)c1ccccc1 (centres unmarked),-2.26
10,CCS(=O)(=O)n1nc(-c2ccc(OC)cc2)nc1SCc1ccccc1,4.08
11,Cc1cccc(C(=O)N2N=C(c3ccncc3)CC2(O)C(F)(F)F)c1 (centres unmarked),2.06
12,O=S1(=O)N=C(N(CCO)c2ccc(Cl)cc2)c2ccccc21,1.68
13,NS(=O)(=O)c1ccc(NC(=O)C23CC4CC(CC(C4)C2)C3)cc1,9.77
14,O=S1(=O)N=C(Nc2ccc(Br)cc2)c2ccccc21,-2.42
15,Cc1ccc(S(=O)(=O)NCc2ccc(C(=O)NC3CCC(C)CC3)cc2)cc1 (centres unmarked),-3.35
16,COc1ccc(CC(=O)Nc2ccc(Cl)cc2)cc1,1.27
17,COc1ccccc1N1C(=O)c2ccccc2C1=O,-3.98
18,COc1ccccc1CN1CCN(Cc2ccc(Cl)cc2)CC1,-2.32
19,Cc1ccc(Nc2nc(-c3ccc(-c4ccccc4)cc3)cs2)cc1Cl,-4.31
20,Cc1nc2ncnn2c(C)c1CCC(=O)NC(C)c1ccccc1 (centres unmarked),-0.465
21,N#Cc1nc(COc2ccccc2)oc1NCCc1ccccc1,1.43
22,Cc1onc(-c2c(Cl)cccc2Cl)c1C(=O)NC(C)(C)C,-4.74
23,COc1ccc(NC(=O)CN(c2ccccc2)S(=O)(=O)c2ccc(OC)cc2)cc1,2.08
24,COc1ccc(C)cc1N(CC(=O)Nc1ccc(S(=O)(=O)N2CCCCC2)cc1)S(C)(=O)=O,3.84
25,COc1ccc(CC2(C)OC(c3cccs3)=NN2C(C)=O)cc1 (centres unmarked),-2.65

row,SMILES,% Inhibition @ 10 uM [%]
1,COc1cc(C2c3c(-c4cc(C)ccc4O)n[nH]c3C(=O)N2CCCOC(C)C)ccc1O (centres unmarked),3.81
2,Cc1ccc(N2C(=O)C3C4CCC(O4)C3C2=O)nc1 (centres unmarked),-2.77
3,CN(C)CCn1c(=O)n(C)c(=O)c2[nH]cnc21,-4.82
4,Cc1ccc(NC(=O)c2ccncc2)c(Br)c1,-0.48
5,O=C(NCC1CCCO1)c1ccc(COc2cccc3ccccc23)cc1 (centres unmarked),-5.57
6,CC1(C)CC(=O)C2=C(C1)N(c1ccccc1)C(=O)CC2c1ccc(O)cc1 (centres unmarked),5.16
7,CC(=O)N(Cc1c(C(=O)O)oc2cccc(O)c12)C(C)C,0.266
8,O=C(CNC(=S)N1CC2CC(C1)c1cccc(=O)n1C2)NCc1c(F)cc(F)cc1F (centres unmarked),-0.519
9,CCCCn1c(=O)[nH]c2nc3cc(N)ccc3nc2c1=O,4.15
10,O=C(O)C1CC=CCC1C(=O)Nc1ccc2c(c1)OCCO2 (centres unmarked),-2.09
11,c1ccc2c3c([nH]c2c1)-c1nonc1CC3,-0.294
12,CC(C)CCn1c(CO)nc2ccccc21,-6.36
13,COc1ccc(C2=N/C(=C\c3cccc4ccccc34)C(=O)O2)cc1OC,2.09
14,COc1cccc(S(=O)(=O)c2c(C)cc(C)cc2C)c1,-2.51
15,Cc1ccc(CN2C(=O)N/C(=C/c3ccc(OC(C)C)cc3)C2=O)cc1,3.29
16,CCOc1ccc(Br)cc1C(=O)NCCc1c[nH]c2ccccc12,-3.64
17,CCCCn1c(C(C)NC(=O)c2cc(OC)c(OC)c(OC)c2)nc2ccccc21 (centres unmarked),9.77
18,Cc1cccc(NC(=O)c2cnn(-c3ccccc3)c2C)c1C,-0.884
19,COCCCNC(=O)c1oc2ccc(S(=O)(=O)N(C)C3CCCCC3)cc2c1C,12.1
20,CCOC(=O)c1c(NC(=O)C(C)SC2=NN3CCCC(=O)N=C3S2)sc2c1CCCC2 (centres unmarked),9.34
21,O=C(c1nsnc1-c1ccccc1O)N1CCCC1,-1.07
22,Cc1ccc(Cn2c(=O)c3ccccc3n3c(-c4ccccc4F)nnc23)cc1,3.3
23,CCOc1ccc(C(=O)Nc2ccc(CN3CCOCC3)cc2)cc1Cl,1.78
24,COCCCNC(=O)CN1C(=O)c2ccccc2Sc2ncccc21,-0.397
25,CCOC(=O)C1=C(CN2CCC(c3ccc(C)cc3)C2)NC(=O)NC1c1ccc(Cl)cc1 (centres unmarked),-2.83
